Experimental data: PubChem BioAssay AID1508624 (National Center for Advancing Translational Sciences (NCATS), 2021)
Screen size: about 48,000 compounds; about 120 (0.25%) were called active. Inconclusive results (about 4%) are left out. Calls follow the shape of the dose curve; as a rule, active = well fitted activation curve with a large enough effect; inconclusive = small, poorly fitted or top-dose-only effect, or another doubt; inactive = no such curve, though single readings can be large or run the other way. This is one part of the list.

assay: Primary qHTS for Identification of Small Molecule Activators of Huntingtin-Antisense Promoter Activity; conditions: HEK293 HTT-AS promoter firefly luciferase reporter, 24 h; series mostly up to 57.5 µM; activity change, positive = activation: at the top concentration; also: nearly all actives have a fitted effect of over 55% in size
Method in brief: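 Quantitative HTS used concentration series of up to 57.5 uM final on HEK293 luciferase reporter cells, 24 h at 37 degrees C. Readout was Dual-Glo firefly luminescence.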

Activity change, positive = activation, inactive:
COC(=O)c1c(-c2ccc(Cl)cc2)noc1N1CCN(c2ccc(C(C)=O)cc2)CC1 -1.07%, CCCNC(=O)CCc1c(C)nc2nc(CNC(=O)c3ccccc3)nn2c1C 3.32%, CCOc1ccc(NC(=O)C(CC)n2nc(C)c3c(C)n(-c4ccccc4)nc3c2=O)cc1 (stereo not drawn) -14.6%, Cc1ccc(F)cc1NC(=O)CSc1nc(-c2cccs2)cc(C(F)(F)F)n1 -16.4%, Cc1ccc(NC(=O)CN2C(=O)CC(c3ccco3)Sc3ccccc32)cc1Cl (stereo not drawn) -26.3%, COc1ccc(NC(=O)c2oc3ccccc3c2NC(=O)c2cc3ccccc3o2)c(OC)c1 -4.45%, CC1CCN(S(=O)(=O)c2ccc3c(c2)c(=O)c(C(=O)N2CCN(c4cccc(Cl)c4)CC2)cn3C)CC1 1.86% [at 11.5 µM, percent change from vehicle, -100% = no light], Cc1ccc(-n2ncc(C(=O)NCCN3CCc4ccccc4C3)c2C2CCN(C(=O)OC(C)(C)C)CC2)cc1C -41.5%, COc1ccc(NC(=O)CN2CCN(CC(=O)Nc3ccccc3F)CC2)c(OC)c1 -13.4%, COc1ccc(S(=O)(=O)c2c(Nc3cccc(C)c3C)sc(C(=O)c3ccccc3)c2N)cc1 -31.4%, Cc1cccc(C)c1NC(=O)CN1CCN(CCCC(c2ccc(F)cc2)c2ccc(F)cc2)CC1 -32%, CCOC(=O)c1c(C)oc2nc(C)nc(NCCc3ccc(OCC)c(OCC)c3)c12 -31%, COC(=O)c1ccc(NC(=O)CSc2cn(CC(=O)N3CCCCC3)c3ccccc23)cc1 -16.8%, COc1ccc(N2CCN(c3ncnc4c3cnn4-c3ccc(F)cc3)CC2)cc1 16%, CC1CCN(C(c2ccccc2)c2sc3nc(-c4ccco4)nn3c2O)CC1 (stereo not drawn) -5.99%, COc1ccc(CNS(=O)(=O)c2cc3c(cc2Cl)N(C(C)=O)CCO3)cc1 -5.89%, O=C(CSc1nc(-c2ccccc2)cn1-c1ccccc1F)Nc1ccc(F)cc1 -10.8%, COc1cc(NC(=O)CN2CCN(S(=O)(=O)c3ccc(Br)cc3)CC2)cc(OC)c1 0%, Cc1ccc(Nc2cc(C(=O)NCCc3ccccc3)c3ccccc3n2)c(C)c1 -1.2%, COc1ccc(NC(=O)CSc2nc(-c3cc(OC)c(OC)c(OC)c3)[nH]c2-c2ccc(F)cc2)cc1 -40.2%, CCCCC(=O)Nc1c(C(=O)N2CCN(c3ccccc3F)CC2)oc2ccccc12 -26.4%, CCCOC(=O)c1cccc(NC(=O)c2c(-c3ccccc3Cl)noc2C)c1 -35.7%, O=C(Cn1nc(-c2ccc(Cl)cc2)c2ccccc2c1=O)Nc1cccc(Br)c1 -16.9%, Cc1ccccc1Cn1c(COc2ccc(Cl)cc2)nc2ccccc21 9.68%, Cc1nc2ccc(S(=O)(=O)N(C)CC(=O)Nc3ccc(C(C)C)cc3)cc2s1 -15.1%, COc1ccc(CNC(=O)C2CCN(c3nnc(-n4c(C)ccc4C)s3)CC2)c(OC)c1 0.707%, O=C(Nc1cccc(F)c1)C1CCCN(S(=O)(=O)c2cccc3cccnc23)C1 (stereo not drawn) -6.64%, CCCCN(C)CCCNC(=O)C1CCN(S(=O)(=O)CCC)CC1 10.7%, O=C(Nc1ccccc1C(F)(F)F)c1ncoc1-c1ccco1 -16.3%, COc1ccc(-c2cc(C(F)(F)F)nc(SCCC(=O)Nc3ccc(NC(C)=O)cc3)n2)cc1 -15.8%, CCN(CC)c1ccc(CNCCCSc2nnnn2C)cc1 -7.03%, COc1ccc(CNC(=O)c2cc(Nc3ccccc3C)nc3ccccc23)cc1 -12.4%, Cc1oc2ncn(C)c(=O)c2c1C(=O)N1CCN(c2cccc(C(F)(F)F)c2)CC1 -14.7%, C[C@H]1C[C@H](O)c2ccsc2S1(=O)=O 0.392%, COCCNc1nc2c(c(=O)n(C)c(=O)n2C)n1Cc1c(F)cccc1Cl -29.9%, Cc1oc(-c2cccc(Cl)c2)nc1CN1CCC(C(=O)NC(C)c2ccccc2)CC1 (stereo not drawn) -14.6%, COc1ccc(Cl)cc1NC(=O)CSc1cn(CC(=O)N2CCCCC2)c2ccccc12 -42.7%, CCOc1ccc(CN2C(=O)c3ccccc3Sc3ccc(C(=O)NCc4ccco4)cc32)cc1 -28.1%, CCc1ccccc1NC(=O)CCCSc1nc(-c2ccco2)cc(C(F)(F)F)n1 4.9% [at 11.5 µM, percent change from vehicle, -100% = no light], COc1ccc(NC(=O)C2=CC(c3ccco3)=NS(=O)(=O)N2C)cc1OC -4.93%, CCCN(C(=O)c1cn(C)c(=O)c2cc(OC)c(OC)cc12)c1ccc(CC)cc1 -24%, CCN(c1ccccc1)S(=O)(=O)c1nnc(NC(=O)c2ccccc2OC)s1 2.23%, COc1cc(C)c(Cc2cnc(N)nc2N)cc1OC -3.59%, CCOCCc1nn2c(=O)cc(COC(=O)c3ccc(NC(=O)C4CCCCC4)cc3)nc2s1 -31.4%, Cc1nn(-c2ccccc2)c(OC(=O)c2ccccc2Br)c1S(=O)(=O)c1ccccc1 -7.53%, Cc1cc(NC(=O)c2ccc3c(c2)N(Cc2cccc(Cl)c2)C(=O)c2ccccc2S3(=O)=O)ccc1Br -28.2%, O=C(Nc1ccc(Cl)cc1)C1CCC(CNS(=O)(=O)c2ccc(Br)s2)CC1 (stereo not drawn) -22.5%, O=C(CS(=O)(=O)c1cccc2nsnc12)N1CCN(c2ccccc2F)CC1 3.93%, O=C1CC(c2c(Cl)cccc2Cl)c2c(ccc3ccccc23)N1 (stereo not drawn) -37.6%, CC1=C(C(=O)Nc2ccccc2Cl)C(c2cccc(O)c2)n2ncnc2N1 (stereo not drawn) -6.2%, CCNC(=O)NCc1cccc(Cl)c1 -6.31%, CCc1ccc(-n2c(=O)c3sc4ccccc4c3n(CC(=O)N(CC)Cc3ccccc3)c2=O)cc1 -2.1%, O=C(Nc1ccc2nc(SCC(=O)N3CCc4ccccc43)sc2c1)c1ccccc1 -1.09%, CCOC(=O)c1c(C)[nH]c(C)c1S(=O)(=O)N1CCCC(C(=O)Nc2cc(C)ccc2C)C1 (stereo not drawn) -1.3%, CCCCNC(=O)CSc1nc2nc(C)c(Cc3c(F)cccc3Cl)c(C)n2n1 -19%, CC(=O)c1ccc(NC(=O)COc2ccccc2-c2nc(-c3ccc(C)cc3)no2)cc1 19.8%, O=C(NC1CC(=O)N(c2cccc(F)c2)C1)c1ccc2c(c1)OCO2 (stereo not drawn) -8.48%, Cc1ccc(OCC(=O)Nc2ccccc2C(=O)OCc2cc(=O)n3ccsc3n2)cc1 21.2%, O=C(C1CCC(Cn2c(=O)c3sccc3n(Cc3ccccc3)c2=O)CC1)N1CCOCC1 (stereo not drawn) -24.7%, Cc1ccc(-c2nnc(Nc3ccccc3O)c3ccccc23)cc1 -34.7%, O=C(Nc1cc2c(cc1C(=O)c1ccccc1Br)OCCO2)c1ccccc1 -11.2%, Cc1ccc(Cl)cc1N1CCN(C(=O)c2cnn(C)c2C2CCN(C(=O)OC(C)(C)C)CC2)CC1 -47.9%, COc1cc(OC)c(NC(=O)N2CCc3c([nH]c4ccccc34)C2c2ccccc2F)cc1Cl (stereo not drawn) -26.3%, O=C(Nc1ccccc1F)c1ccc(Cn2nc(N3CCN(c4ccccc4)CC3)ccc2=O)o1 -31.1%, CC(=O)O[C@]1(C(C)=O)CC[C@H]2[C@@H]3C=C(C)C4=CC(=O)CC[C@]4(C)[C@H]3CC[C@@]21C -3.25%, CCc1cc(C(=O)Nc2c(C)nn(Cc3ccccc3Cl)c2C)no1 -13.4%, Cc1cc(C)c(NC(=O)CN2C(=O)c3cccnc3Sc3ccccc32)c(C)c1 18.3%, O=C(CCC(=O)N1CC2CCCN2c2ccccc21)NCc1ccc(F)cc1 (stereo not drawn) -2.05%, CCc1ccc(NC(=O)CC2C(=O)NCCN2C(=O)c2ccc(F)cc2)cc1 (stereo not drawn) -4.21%, COc1ccc(S(=O)(=O)c2c(Nc3ccccc3F)sc(C(=O)c3cccc(OC)c3)c2N)cc1 -42.3%, CCOCCOC(=O)/C=C/c1ccc(OC)cc1 27.4%, CCCC(CCC)(C(=O)OCC)C(=O)OCC -1.03%, COc1cccc(C2CC(=O)Nc3c2ccc(C)c3C)c1OC (stereo not drawn) -28.8%, CCOc1ccccc1CNC(=O)c1ccc(CS(=O)Cc2cccc(Cl)c2)o1 (stereo not drawn) -15.4%, Cc1cccc(NC(=O)CSc2nnc(NC(=O)Nc3ccccc3)s2)c1C -9.28%, CSc1ccc(C2C(C(=O)Nc3ccccc3)=C(C)Nc3nc4ccccc4n32)cc1 (stereo not drawn) -8.48%, CSc1ccc(CNC(=O)Cn2nc(N3CCN(c4ccccc4)CC3)ccc2=O)cc1 -19%, Cc1ccccc1CNC(=O)C(=O)NCC(c1ccco1)S(=O)(=O)c1cccs1 (stereo not drawn) -2.35%, NC[C@H]1O[C@H](O[C@H]2[C@H](O)[C@@H](O[C@H]3O[C@H](CO)[C@@H](O)[C@H](N)[C@H]3O)[C@H](N)C[C@@H]2N)[C@H](N)[C@@H](O)[C@@H]1O -9.99% [at 25.1 µM, percent change from vehicle, -100% = no light], CCc1ccc(-n2nc(CO)c(C(=O)NCCc3ccccc3)n2)cc1 3.33%, O=C(CSc1nc2c([nH]c3ccccc32)c(=O)n1-c1ccc(F)cc1)N1CCc2ccccc21 -18.9%, Cc1cc(C)cc(-n2c(SCC(=O)N3CCC(C)CC3)nc3c([nH]c4ccccc43)c2=O)c1 -15.8%, Cc1ccc(C)c(N2CCN(C(=O)Cc3c(C(=O)O)c(C)cn3C)CC2)c1 -9.77%, COc1cccc(C(=O)N2CCCCC2CCN2CCCCC2)c1 (stereo not drawn) -3.29%, NC(=O)c1cnc(-c2ccc(C3(N)CCC3)cc2)c(-c2ccccc2)c1 -13.2%, Cc1oc(-c2ccccc2F)nc1CS(=O)CC(=O)NC(C)C (stereo not drawn) -4.33%, COc1ccc(OC)c(NC(=O)c2cccc3c2C(=O)N(C2CCCCC2)C3)c1 -13.9%, Cc1cccc(Cn2c(CNS(=O)(=O)c3ccc(C(C)C)cc3)nc3cccnc32)c1 -23.1%, O=S(=O)(c1ccc(F)cc1)N(CC(O)Cn1c2ccccc2c2ccccc21)c1ccccc1 (stereo not drawn) -41.6%, COc1ccc(C(=O)NCC(c2ccc3c(c2)OCO3)N2CCN(C)CC2)cc1 (stereo not drawn) -3.94%, CCOc1ccc(CCNC(=O)c2nnc(Cc3ccc(Cl)cc3Cl)o2)cc1OCC -12.7%, COc1cc(OC)c(N(C)C(=O)c2c(C)oc3ncnc(N4CCCCC4)c23)cc1Cl -23%, CCOC(=O)c1cc2c(=O)n3ccccc3nc2n(CC2CCCO2)c1=NC(=O)c1ccccc1C (stereo not drawn) -3.68%
